The full ranking holds about 33,000 sequences; the median of “E-score (-0.5 to 0.5)” is about -0.016, and the highest 2% start at about 0.31. The list shows a part of the results.
Each sequence was assayed against Cst6 (UniProt P40535) (assay: PBM E-score (8-mer binding enrichment) (E-score (-0.5 to 0.5)); higher = stronger / more preferred TF binding; most listed sequences are background and not binding sites). Conditions: protein concentration: 200 nM; construct: GST-DNA-binding domain.
Procedure: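 Universal 'all 10-mer' protein binding microarrays (Agilent AMADID 015681) probed with GST-tagged S. cerevisiae TFs (full-length or DBD) made by in vitro transcription/translation (PURExpress), about 100-200 nM. Bound TF was detected with fluorescent anti-GST. Each ungapped 8-mer (which stands for itself and its reverse complement) is scored by the PBM enrichment score (E-score), a modified Wilcoxon-Mann-Whitney statistic from -0.5 to +0.5, computed with the Universal PBM Analysis Suite. Scale: above 0.35 generally sequence-specific binding.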

| Sequence | PBM E-score |
| --- | --- |
| AAGCAAAA | 0.17 |
| CACACGGG | -0.0293 |
| CAGCTCCA | -0.232 |
| AATACAAG | 0.118 |
| CCGCCCCC | -0.373 |
| CTCGAAAC | 0.0781 |
| CAAACAGG | -0.0882 |
| CAGCGGGC | -0.0805 |
| ACACTCGT | 0.0529 |
| CTCATCTA | -0.113 |
| TACCGGGA | -0.179 |
| AGTACAGA | -0.039 |
| AACATTAA | 0.157 |
| CGAATCAG | 0.0436 |
| ACCGCATC | 0.0649 |
| CGCGATTC | 0.125 |
| AGATCACC | 0.0858 |
| AGCACTGG | -0.144 |
| CCACTGAG | -0.214 |
| GATCCAAA | 0.169 |
| TACTACTA | 0.131 |
| AGCTCACC | -0.211 |
| AGTCCGAG | -0.226 |
| ACAACCAT | 0.325 |
| GTAATTGA | 0.287 |

| Sequence | PBM E-score |
| --- | --- |
| GATTTACC | 0.103 |
| CTAGCTAC | -0.112 |
| ATGGCAAT | 0.101 |
| GACCGGGA | -0.305 |
| AATGTCCA | -0.124 |
| CAAATTCA | -0.0122 |
| AACAAGCT | -0.115 |
| GTTTGGGA | 0.0263 |
| ACACCACT | 0.0996 |
| CCACCCGC | -0.192 |
| GATTCAAA | 0.116 |
| CATCCCAC | -0.0267 |
| ACTAATGG | 0.0198 |
| GATAGTGC | -0.134 |
| CGGCGCCA | 0.161 |
| ACGCCCCG | 0.0241 |
| CCTGACAC | 0.029 |
| CAGAGCCG | 0.138 |
| ATACCTAG | -0.0999 |
| AAGAGGAG | -0.301 |
| AGTGTGTA | 0.0987 |
| GAGTTATC | 0.0366 |
| CACCTTTA | -0.00154 |
| GATATACC | 0.0963 |
| AAACTTCC | -0.131 |

| Sequence | PBM E-score |
| --- | --- |
| AACGCGTT | 0.06 |
| GTTCCCCA | -0.0821 |
| TAGGAACA | -0.0743 |
| GATGTGAA | 0.131 |
| AAACGAAA | 0.191 |
| AAGCTCAG | -0.0554 |
| TAAGCTCA | -0.153 |
| CGTTTGAG | 0.134 |
| CCACACGA | -0.178 |
| GAACTTCC | -0.274 |
| AGATATCA | 0.198 |
| TGGTATAA | 0.21 |
| CATAACGC | 0.189 |
| CATAGCGC | 0.151 |
| ACCCTTAT | 0.0392 |
| CCCCCGGA | -0.355 |
| AATCGCGC | 0.134 |
| AAAATTCG | 0.22 |
| CGCGGTGA | 0.135 |
| GAAGCAAC | -0.0363 |
| AACGCGTC | 0.0448 |
| AAAACATC | 0.195 |
| CAACAGAG | -0.0105 |
| GCGAAATA | 0.064 |
| CCATACCC | -0.157 |

| Sequence | PBM E-score |
| --- | --- |
| CGGAGACA | -0.0524 |
| CTGTGGGC | -0.0905 |
| GGCACCGA | 0.0149 |
| CTGGGAGC | -0.361 |
| AGGAGGGC | -0.3 |
| CCATTCCA | -0.0676 |
| ACTGTATG | -0.0381 |
| CGGCCAGA | -0.0582 |
| ACGGCTAG | 0.0922 |
| GGTGACTA | 0.159 |
| CCTGATGC | 0.0754 |
| AACCCATT | -0.0193 |
| AGGTGACG | 0.452 |
| AAGAGTCG | 0.046 |
| CCCGAGAA | -0.159 |
| ATACCCAG | -0.246 |
| ATTGAACA | -0.0356 |
| CACGTCAC | 0.489 |
| GGGATCCA | -0.109 |
| CGTGTAGA | 0.107 |
| CAATATAA | 0.312 |
| TGCGAGCA | -0.143 |
| CGTACGGC | 0.254 |
| ATATAACG | 0.267 |
| CGAAGCCC | -0.183 |

| Sequence | PBM E-score |
| --- | --- |
| GGCCACAA | -0.0219 |
| AAGCAGTG | 0.0603 |
| GAAACGGA | 0.121 |
| CGCAGGCC | -0.128 |
| CGCAGCGA | -0.119 |
| CGCGCGTC | 0.167 |
| ATTGTCGC | 0.0295 |
| ATATGAGG | -0.0432 |
| CCCCGCAG | -0.275 |
| CCTCTATA | -0.0674 |
| ACGAAAAA | 0.296 |
| GGGTCCCA | -0.228 |
| CCGGCACG | -0.1 |
| CGGCTAAG | 0.00043 |
| AAAGCTAG | -0.227 |
| CTCGAGGC | -0.0847 |
| CATGGACG | 0.0763 |
| CGCGCCGC | 0.326 |
| CTGTGCCA | -0.147 |
| CGCTCCCG | -0.159 |
| ACCAACCC | -0.0564 |
| ACGTCGGA | -0.0746 |
| ACAGCTGA | 0.0339 |
| AGAATTAT | 0.142 |
| AACGCGTG | 0.078 |

| Sequence | PBM E-score |
| --- | --- |
| AGGTTCAG | -0.0185 |
| CTTCCTCC | -0.235 |
| CTTAAAAA | 0.177 |
| AAGTCACC | 0.188 |
| CTAAGCTA | 0.0543 |
| AGTCGGGC | -0.202 |
| ACTGCTCC | -0.199 |
| GGAGCTGA | -0.207 |
| CCTCCGAG | -0.31 |
| TGCAAGAA | 0.141 |
| GAATGGAA | 0.0883 |
| GGATCGGA | -0.114 |
| AAGGGTAA | -0.154 |
| GATGGTCA | -0.00406 |
| AAATCAGG | 0.0578 |
| CCAGAGGA | -0.166 |
| CCGAACGC | 0.162 |
| ACACGAGG | -0.0185 |
| CGAAATCG | 0.0477 |
| CTTAGATC | -0.0573 |
| CTGAACAA | 0.138 |
| AAACACTC | 0.0497 |
| AGGATCTC | -0.182 |
| CTGCACAA | -0.0605 |
| CAACCGAC | 0.0629 |

| Sequence | PBM E-score |
| --- | --- |
| AGCACACA | -0.16 |
| ATGGGTGC | -0.135 |
| CTTCGTGA | 0.0569 |
| AGGAGTCC | -0.234 |
| ATCATCCG | 0.0385 |
| TCGGCACA | -0.0165 |
| GACGGCCC | -0.163 |
| ACCCGGCT | -0.204 |
| CCGAGTTA | 0.00264 |
| TCTGCACA | -0.0745 |
| GACTGTTA | 0.0425 |
| CTGTTCCA | -0.0344 |
| AAGCAGGC | -0.24 |
| ATTGACTA | -0.0205 |
| CCAGGGAG | -0.35 |
| CTCTTGGA | -0.134 |
| GAAATCTC | -0.00885 |
| GGCCGTCA | 0.0436 |
| AGAAGGGG | -0.222 |
| CATCCTTA | 0.00972 |
| CCTGCGCG | -0.0722 |
| CCGCCTCA | -0.129 |
| ACATTCAC | 0.0696 |
| ACGTTAAC | 0.207 |
| CGAAGATA | 0.154 |

| Sequence | PBM E-score |
| --- | --- |
| ATTTGATG | 0.13 |
| ACGCTCTG | -0.215 |
| CCACCATA | -0.034 |
| GTCTCCCA | -0.244 |
| ATCACCAC | 0.244 |
| ATAAGGGC | 0.0296 |
| ACTTAGCG | 0.107 |
| AGGCAAAC | 0.042 |
| GTCGAACA | 0.0815 |
| ACTTTGAA | 0.0348 |
| CAGTAGTC | -0.195 |
| CACCGCTC | -0.00806 |
| ATGATATG | 0.269 |
| GTGCACGA | -0.0324 |
| GGAGTGAC | 0.225 |
| CAGAGAGG | -0.396 |
| CCTTCTCG | -0.264 |
| GCAAGGAC | -0.214 |
| GCACCTGA | -0.0138 |
| AAGACAAC | 0.195 |
| GCGGAAAA | 0.17 |
| AAGTCTAG | -0.297 |
| ACCATGAC | 0.395 |
| ACACAGTA | -0.0321 |
| ATTTGACC | 0.0657 |

| Sequence | PBM E-score |
| --- | --- |
| ACCCTGAT | -0.133 |
| AACGATGG | -0.0234 |
| ACAGAACT | 0.067 |
| AATCTAAA | 0.0998 |
| CTGATATC | 0.174 |
| AGATGAGA | 0.00259 |
| CTCTCAGA | -0.0636 |
| ACTCGTGG | -0.0561 |
| CAGATAAC | 0.057 |
| ACCGTTAG | 0.059 |
| AGCCAATG | -0.174 |
| AATATGAC | 0.35 |
| CCTATTAA | -0.0552 |
| ACCGGTAA | 0.0331 |
| GTGTCGTA | 0.2 |
| GAGGAGGA | -0.288 |
| CCCTGCCG | -0.3 |
| AATTATTG | 0.252 |
| AAAGAGTT | -0.00381 |

— the supplement of paper PMC3334620
